# Assay results reported in PMC6919601, “Identification of Plasmodium dipeptidyl aminopeptidase allosteric inhibitors by high throughput screening” (PLoS ONE, 2019).
# The campaign covered roughly 110,000 compounds. About 230 (0.21%) showed an effect of 50% or more. The list shows a part of the results.
# Target: DPAP1 (Plasmodium falciparum, UniProt Q8IIJ9)
# Assay: primary screen, percent inhibition; read by cleavage of a fluorogenic dipeptide substrate; higher = more effect of the substance
# Set-up: species or system P. falciparum D10 trophozoite lysates; single well
# 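Also: 30 min substrate incubation versus DMSO and 10 µM JCP410 controls.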
# DPAP1, sequence (Q8IIJ9 whole entry, looked up): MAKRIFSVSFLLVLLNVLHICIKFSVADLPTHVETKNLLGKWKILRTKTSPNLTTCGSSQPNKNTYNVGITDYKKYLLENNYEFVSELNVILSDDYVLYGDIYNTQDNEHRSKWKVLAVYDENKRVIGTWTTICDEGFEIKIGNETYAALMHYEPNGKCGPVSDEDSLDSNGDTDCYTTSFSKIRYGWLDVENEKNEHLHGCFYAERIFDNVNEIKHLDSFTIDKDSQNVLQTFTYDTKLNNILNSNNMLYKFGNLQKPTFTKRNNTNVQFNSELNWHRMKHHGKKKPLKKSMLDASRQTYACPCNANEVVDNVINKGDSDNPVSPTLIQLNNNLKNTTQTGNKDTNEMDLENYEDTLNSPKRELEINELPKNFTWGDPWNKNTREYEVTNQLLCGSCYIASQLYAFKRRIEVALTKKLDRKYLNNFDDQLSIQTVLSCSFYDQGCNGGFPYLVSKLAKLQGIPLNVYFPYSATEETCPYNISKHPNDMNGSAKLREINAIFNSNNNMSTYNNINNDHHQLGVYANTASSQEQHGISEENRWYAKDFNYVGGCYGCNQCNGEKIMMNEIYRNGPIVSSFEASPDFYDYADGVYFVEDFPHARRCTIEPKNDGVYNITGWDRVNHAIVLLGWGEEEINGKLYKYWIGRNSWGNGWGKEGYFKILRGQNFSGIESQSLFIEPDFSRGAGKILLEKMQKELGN
row,Structure (SMILES),% Inhibition @ 10 uM
1,CC1=CC(C)C2(CO)COC(c3ccc(N(C)C)cc3)C1C2C (stereo not drawn),-4.03%
2,O=C(CSc1nc2ccccc2s1)Nc1ccc(Cl)cn1,-5.14%
3,COc1ccc(OCc2ccc(C3C(C#N)=C(N)Oc4[nH]nc(C)c43)cc2OC)cc1 (stereo not drawn),1.57%
4,OCC#CCSc1ncnn1-c1ccccc1,3.38%
5,CCCCc1[nH]nc2c1C1(CCN(C)CC1)C(C#N)=C(N)O2,-0.105%
6,Cc1cc(OCC(O)CN2CCN(C)CC2)ccc1C(C)C (stereo not drawn),3.44%
7,CCOC(=O)C1=C(CN2CC=C(c3ccccc3)CC2)NC(=O)NC1c1ccc(C)cc1 (stereo not drawn),-5.16%
8,COc1cc(/C=N/CCNS(=O)(=O)c2ccc(C)cc2)ccc1O,-5.87%
9,CCOc1ccc(C(=O)CCNC(C(=O)O)C(C)CC)cc1 (stereo not drawn),71%
10,COc1ccc(C2C(C#N)=C(N)Oc3c2c(C)nn3-c2ccccc2)cc1OC (stereo not drawn),-6.59%
11,O=C(OCCN1C(=O)c2ccccc2C1=O)N1CCOCC1,12.6%
12,C=CCn1c(CSc2nc(N)cc(N)n2)nnc1SCC(=O)NC1CCCCC1,3.33%
13,CN(C)CCN(C)Cc1coc2ccccc2c1=O,-3.27%
14,COc1ccc(C2Nn3c(nnc3-c3ccccc3)SC2C(=O)N2CCOCC2)cc1 (stereo not drawn),-1.72%
15,O=C(NCCc1ccccc1)c1ccc(-c2ccccc2)s1,-2.17%
16,CP(=O)(O)C(c1cccc(Cl)c1)C(F)(F)F (stereo not drawn),7.24%
17,CCN1C(=O)/C(=C\c2ccc(F)cc2)N=C1SCC(=O)NCc1ccco1,5.83%
18,CC(=O)c1cccc(N2C(=O)C3C4c5ccccc5C(c5ccccc54)C3C2=O)c1 (stereo not drawn),2.13%
19,O=C(CC12CC3CC(CC(C3)C1)C2)N1CCN(c2ccccc2F)CC1,-3.65%
20,O=c1c(-c2ccccc2)c(O)cc(-c2ccncc2)n1-c1ccc(Cl)cc1,-1.07%
21,COC(=O)c1nc2n(n1)C(c1ccc(C)cc1)C1=C(O)CCCC1=N2 (stereo not drawn),1.26%
22,COc1cccc(=O)c2c(C)n(-c3ccc(C(=O)O)cc3)c(C)c12,0.778%
23,c1cncc(-c2nnc(SCc3cccc4ccccc34)o2)c1,-6.71%
24,CC(C)(C)c1[nH]nc2c1C(c1ccc(F)cc1F)C(C#N)=C(N)O2 (stereo not drawn),-0.883%

row,Structure (SMILES),% Inhibition @ 10 uM
1,CCCn1c2c(c(=N)c3c1CCC3)CCC2,4.07%
2,COC(=O)C1CCCN1Cc1ccccc1C (stereo not drawn),3.24%
3,Cc1cc2c(c(=O)n1CCN(C)C)C(c1cccc(Br)c1)C(C#N)=C(N)O2 (stereo not drawn),5.5%
4,Cc1nnc2c(N3CCN(C4CCCCC4)CC3)nc3ccc(C(=O)c4ccccc4)cc3n12,-0.984%
5,CC(C)N1C(=O)/C(=C\Nc2ccc(Br)cc2)C(=O)N(Cc2ccco2)C1=O,-1.06%
6,COc1ccc(C)cc1N(CC(=O)NCc1ccc(Cl)cc1)S(=O)(=O)c1ccccc1,6.24%
7,O=C(O)c1cccc(NS(=O)(=O)c2cccc(S(=O)(=O)c3ccccc3)c2)c1,4.82%
8,O=C(CCn1ccc2cc(S(=O)(=O)N3CCCC3)ccc21)NCc1ccc2c(c1)OCO2,0.58%
9,COc1cc(-c2nnc3sc(COc4cccc(C)c4)nn23)cc(OC)c1OC,23.3%
10,Cc1c(C(c2cccc([N+](=O)[O-])c2O)c2c(C)n(C)n(-c3ccccc3)c2=O)c(=O)n(-c2ccccc2)n1C,5.03%
11,CCC(C(=O)NCCC(C)C)n1nc(C)c2c(C)n(-c3ccc(C)cc3)nc2c1=O (stereo not drawn),-2.52%
12,Cc1ccc(C2C(C#N)=C(N)N(c3ccc(S(N)(=O)=O)cc3)C3=C2C(=O)CC(C)(C)C3)cc1 (stereo not drawn),-2.45%
13,C/N=C1/S/C(=C/c2ccc(OC)c(OC)c2)C(=O)N1C1CCCCC1,-2.28%
14,CCC(NC(=O)c1ccc(Br)o1)c1ccc(C)cc1 (stereo not drawn),-7.33%
15,COc1ccccc1-c1coc2c(CN3CCN(C)CC3)c(O)ccc2c1=O,-4.78%
16,CCCCC1CCC(C(=O)Nc2c3c(nn2-c2ccc(OC)cc2)CS(=O)(=O)C3)CC1 (stereo not drawn),2.79%
17,NS(=O)(=O)c1ccc(NS(=O)(=O)c2ccc(NC(=O)CCc3ccccc3)cc2)cc1,-1.02%
18,Nc1nonc1-c1nc2ccccc2n1CC(=O)Nc1ccc(F)c(Cl)c1,-3.65%
19,CCCN1CCN(C(=O)C2CCN(c3ncnc4c3nc3n4CCCCC3)CC2)CC1,0.721%
20,O=C(O)CCC(=O)Nc1ccc(S(=O)(=O)N2CCCC2)cc1,4.09%
21,COc1ccc(-n2nnc(-c3nc(-c4ccccc4F)no3)c2N)cc1,-2.15%
22,COc1ccc(-c2cc3c(=O)n(CC(=O)N4CCC(N5CCCCC5)CC4)ncn3n2)cc1,0.623%
23,CC(C)CN1CC(=O)C(c2nc3ccccc3[nH]2)=C1N,3.74%
24,CC[C@@H](C)[C@@H](CS(=O)(=O)N[C@@H](CCc1ccccc1)C(=O)COc1cccc(OC)c1)NC(=O)OCc1ccccc1,-7.36%
